Assay results taken from the supplement of paper PMC11876631.
Numbering of substitutions follows the chain as printed. In names and notes the source's numbering stands. ± gives the standard deviation of the averaged measurements. Laboratory Escherichia coli strains with one amino-acid change in an essential protein, pooled on minimal glucose agar with carbenicillin or gentamicin at twice the control MIC (plus kanamycin and chloramphenicol for the plasmids), 48 h. Fold change of barcode share against drug-free plates; higher = less susceptible. Active = above 20 in both replicates (the paper's putatively resistant). '<' = one read or none on drug, '>' = one read or none on a drug-free plate. Shares are relative, so most strains fall below 1 when a few take over. Listed are strains with at least 15 reads on both drug-free plates, and hits; most hits rest on fewer reference reads. Replicate rank correlation about 0.5. Edits are read from barcodes.

B1: hisS V316P (protein)
chain: MAKNIQAIRGMNDYLPGETAIWQRIEGTLKNVLGSYGYSEIRLPIVEQTPLFKRAIGEVTDVVEKEMYTFEDRNGDSLTLRPEGTAGCVRAGIEHGLLYNQEQRLWYIGPMFRHERPQKGRYRQFHQLGCEVFGLQGPDIDAELIMLTARWWRALGISEHVTLELNSIGSLEARANYRDALVAFLEQHKEKLDEDCKRRMYTNPLRVLDSKNPEVQALLNDAPALGDYLDEESREHFAGLCKLLESAGIAYTVNQRLVRGLDYYNRTVFEWVTNSLGSQGTVCAGGRYDGLVEQLGGRATPAVGFAMGLERLVLLPQAVNPEFKADPVVDIYLVASGADTQSAAMALAERLRDELPGVKLMTNHGGGNFKKQFARADKWGARVAVVLGESEVANGTAVVKDLRSGEQTAVAQDSVAAHLRTLLG
B2: argH M341W (protein)
chain: MALWGGRFTQAADQRFKQFNDSLRFDYRLAEQDIVGSVAWSKALVTVGVLTAEEQAQLEEALNVLLEDVRARPQQILESDAEDIHSWVEGKLIDKVGQLGKKLHTGRSRNDQVATDLKLWCKDTVSELLTANRQLQSALVETAQNNQDAVMPGYTHLQRAQPVTFAHWCLAYVEMLARDESRLQDALKRLDVSPLGCGALAGTAYEIDREQLAGWLGFASATRNSLDSVSDRDHVLELLSAAAIGMVHLSRFAEDLIFFNTGEAGFVELSDRVTSGSSLMPQKKNPDALELIRGKCGRVQGALTGMMMTLKGLPLAYNKDMQEDKEGLFDALDTWLDCLHWAALVLDGIQVKRPRCQEAAQQGYANATELADYLVAKGVPFREAHHIVGEAVVEAIRQGKPLEDLPLSELQKFSQVIDEDVYPILSLQSCLDKRAAKGGVSPQQVAQAIAFAQARLG
B3: argH M341Q (protein)
chain: B2 chain with W341Q
B4: argH M341D (protein)
chain: B2 chain with W341D
B5: argH M341P (protein)
chain: B2 chain with W341P
B6: argH V345A (protein)
chain: B2 chain with W341M, V345A

Molecular target: Escherichia coli (laboratory strain)
Test: barcode share on antibiotic plates over drug-free plates; higher = less susceptible
Experimental: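 A pool of E. coli strains, each edited to carry one amino-acid change in an essential protein, was grown for 48 h on minimal glucose agar with or without antibiotic; strain barcodes were sequenced; mean of two replicates.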

[1] = antibiotic: carbenicillin, 2× MIC (3.1 µg/mL)
[2] = antibiotic: gentamicin, 2× MIC (MIC 0.45 µg/mL)

| Protein | fold change of barcode share [1] | fold change of barcode share [2] |
| --- | --- | --- |
| B1 | 0.293 ± 0.11 | < 0.0091 |
| B2 | 1.34 ± 0.14 | 0.0138 ± 0.002 |
| B3 | 0.799 ± 0.15 | 0.0108 ± 0.0048 |
| B4 | 1.27 ± 0.14 | 0.0216 ± 0.0044 |
| B5 | 16 ± 2.9 | – |
| B6 | 0.328 ± 0.013 | 0.00854 ± 0.00058 |
